Changes are numbered by the printed parent chain. Results are given in words; binding and its absence hold for the method and conditions named. Binding seen in cells or lysates may run through a third protein. Some entries that bind do so weakly or less than the wild type. For part of these data: Tags and fused reporters may be left off the sequences shown.

Protein sequences, listed by entry. Tags and fused reporters are not part of them.
UniProt Q9LTB8: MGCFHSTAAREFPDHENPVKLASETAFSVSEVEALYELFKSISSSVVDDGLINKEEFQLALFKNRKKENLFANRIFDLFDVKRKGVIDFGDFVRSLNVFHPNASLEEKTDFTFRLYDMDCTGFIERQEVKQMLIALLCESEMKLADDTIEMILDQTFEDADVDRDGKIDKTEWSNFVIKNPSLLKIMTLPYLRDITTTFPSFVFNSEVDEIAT

What all share (test): split reporter; ratiometric BiFC (rBiFC 2in1 vectors), transient expression in Nicotiana benthamiana leaves for 2 days; YFP/RFP ratio from 10-30 cells; ratios greater than 1 taken as interaction
In assay [1] the target is T1, nYFP-PIP2;4 (Arabidopsis) (UniProt Q9FF53).
T1 sequence: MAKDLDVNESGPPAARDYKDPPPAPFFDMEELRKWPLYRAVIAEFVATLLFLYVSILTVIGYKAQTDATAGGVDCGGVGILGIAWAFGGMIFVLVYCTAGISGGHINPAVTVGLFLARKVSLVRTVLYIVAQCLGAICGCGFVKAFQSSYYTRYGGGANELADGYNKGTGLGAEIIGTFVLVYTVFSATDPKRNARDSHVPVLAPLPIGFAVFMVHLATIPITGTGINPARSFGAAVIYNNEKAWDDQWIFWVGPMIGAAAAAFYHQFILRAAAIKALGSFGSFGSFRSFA

Assay [2] deals with Calcineurin B-like Calcium Sensor Protein CBL9 (Arabidopsis) (UniProt Q9LTB8).
Assay [3] concerns the target T2, cYFP-PIP2;4 (Arabidopsis) (UniProt Q9FF53).
T2 sequence: T1 sequence

In another assay the target is T3, SIRK1-cYFP (Arabidopsis) (UniProt Q0WR59).
T3 sequence: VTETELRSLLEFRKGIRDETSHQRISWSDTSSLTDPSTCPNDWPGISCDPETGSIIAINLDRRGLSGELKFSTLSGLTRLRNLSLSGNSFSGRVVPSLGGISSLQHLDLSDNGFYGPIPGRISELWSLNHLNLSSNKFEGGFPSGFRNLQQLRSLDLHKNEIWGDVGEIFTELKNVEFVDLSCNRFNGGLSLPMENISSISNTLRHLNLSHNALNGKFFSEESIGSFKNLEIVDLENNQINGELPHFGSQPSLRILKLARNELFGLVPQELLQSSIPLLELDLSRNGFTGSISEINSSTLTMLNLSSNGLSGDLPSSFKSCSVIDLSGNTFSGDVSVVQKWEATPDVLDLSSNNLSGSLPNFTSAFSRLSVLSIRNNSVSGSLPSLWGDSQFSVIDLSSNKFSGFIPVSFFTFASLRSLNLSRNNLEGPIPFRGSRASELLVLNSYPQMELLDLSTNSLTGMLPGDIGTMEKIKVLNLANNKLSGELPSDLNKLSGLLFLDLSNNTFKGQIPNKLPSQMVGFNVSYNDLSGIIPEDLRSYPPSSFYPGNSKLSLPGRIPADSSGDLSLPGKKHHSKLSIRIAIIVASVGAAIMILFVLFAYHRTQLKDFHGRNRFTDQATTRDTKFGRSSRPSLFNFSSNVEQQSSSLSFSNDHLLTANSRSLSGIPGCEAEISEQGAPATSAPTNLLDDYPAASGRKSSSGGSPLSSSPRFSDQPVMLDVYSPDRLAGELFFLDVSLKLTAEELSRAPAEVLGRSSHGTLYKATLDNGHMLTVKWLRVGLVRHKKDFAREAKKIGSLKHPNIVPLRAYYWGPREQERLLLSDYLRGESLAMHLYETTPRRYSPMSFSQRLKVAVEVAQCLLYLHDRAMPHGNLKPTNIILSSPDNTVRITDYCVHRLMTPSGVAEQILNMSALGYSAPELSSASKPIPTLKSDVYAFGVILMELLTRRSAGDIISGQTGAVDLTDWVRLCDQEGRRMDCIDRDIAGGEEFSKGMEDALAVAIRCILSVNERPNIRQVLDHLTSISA

B1: SIRK1-cYFP (receptor, UniProt Q0WR59 22-1048)
chain: T3 sequence
Regarding B1, in assay [1], the binding entry is “binds”.

B2: SIRK1S744A-cYFP (receptor, UniProt Q0WR59 22-1048)
chain: T3 sequence with S723A
Consider B2, for which the binding entry in assay [1] is “no binding”.

B3: SIRK1S744D-cYFP (receptor, UniProt Q0WR59 22-1048)
chain: T3 sequence with S723D
On to B3, for which the binding entry in assay [1] was “binds”.

B4: CIPK14 (protein, UniProt Q9LZW4 1-442)
chain: MVDSDPVEFPPENRRGQLFGKYEVGKLVGCGAFAKVYHGRSTATGQSVAIKVVSKQRLQKGGLNGNIQREIAIMHRLRHPSIVRLFEVLATKSKIFFVMEFAKGGELFAKVSKGRFCEDLSRRYFQQLISAVGYCHSRGIFHRDLKPENLLLDEKLDLKISDFGLSALTDQIRPDGLLHTLCGTPAYVAPEVLAKKGYDGAKIDIWSCGIILFVLNAGYLPFNDHNLMVMYRKIYKGEFRIPKWTSPDLRRLLTRLLDTNPQTRITIEEIIHDPWFKQGYDDRMSKFHLEDSDMKLPADETDSEMGARRMNAFDIISGSPGFNLSGLFGDARKYDRVERFVSAWTAERVVERLEEIVSAENLTVAKKETWGMKIEGQKGNFAMVVEINQLTDELVMIEVRKRQRAAASGRDLWTDTLRPFFVELVHESDQTDPEPTQVHTTS
Regarding B4, the binding result in assay [2] was “no binding”.

B5: CBL-interacting protein kinase CIPK23 (protein, UniProt Q93VD3 1-482)
chain: MASRTTPSRSTPSRSTPSGSSSGGRTRVGKYELGRTLGEGTFAKVKFARNVENGDNVAIKVIDKEKVLKNKMIAQIKREISTMKLIKHPNVIRMFEVMASKTKIYFVLEFVTGGELFDKISSNGRLKEDEARKYFQQLINAVDYCHSRGVYHRDLKPENLLLDANGALKVSDFGLSALPQQVREDGLLHTTCGTPNYVAPEVINNKGYDGAKADLWSCGVILFVLMAGYLPFEDSNLTSLYKKIFKAEFTCPPWFSASAKKLIKRILDPNPATRITFAEVIENEWFKKGYKAPKFENADVSLDDVDAIFDDSGESKNLVVERREEGLKTPVTMNAFELISTSQGLNLGSLFEKQMGLVKRKTRFTSKSSANEIVTKIEAAAAPMGFDVKTNNYKMKLTGEKSGRKGQLAVATEVFQVAPSLYMVEMRKSGGDTLEFHKFYKNLTTGLKDIVWKTIDEEKEEGTDGGGTNGAMANRTIAKQST
Turning to B5, the binding result in assay [2] is “binds”.

B6: QSK1S621DS626D-nYFP (receptor, UniProt Q9M8T0 24-627)
chain: SDLESDRRALLAVRNSVRGRPLLWNMSASSPCNWHGVHCDAGRVTALRLPGSGLFGSLPIGGIGNLTQLKTLSLRFNSLSGPIPSDFSNLVLLRYLYLQGNAFSGEIPSLLFTLPSIIRINLGENKFSGRIPDNVNSATRLVTLYLERNQLSGPIPEITLPLQQFNVSSNQLNGSIPSSLSSWPRTAFEGNTLCGKPLDTCEAESPNGGDAGGPNTPPEKKDSDKLSAGAIVGIVIGCVVGLLLLLLILFCLCRKRKKEENVPSRNVEAPVAAATSSAAIPKETVVVVPPAKATGSESGAVNKDLTFFVKSFGEFDLDGLLKASAEVLGKGTVGSSYKASFEHGLVVAVKRLRDVVVPEKEFRERLHVLGSMSHANLVTLIAYYFSRDEKLLVFEYMSKGSLSAILHGNKGNGRTPLNWETRAGIALGAARAISYLHSRDGTTSHGNIKSSNILLSDSYEAKVSDYGLAPIISSTSAPNRIDGYRAPEITDARKISQKADVYSFGVLILELLTGKSPTHQQLNEEGVDLPRWVQSVTEQQTPSDVLDPELTRYQPEGNENIIRLLKIGMSCTAQFPDSRPSMAEVTRLIEEVSHSSGDPNPVDD
On to B6, for which the binding entry (in assay [3]; with SIRK1-cYFP (Arabidopsis)) was “binds” each time.

B7: QSK1S621AS626A-nYFP (receptor, UniProt Q9M8T0 24-627)
chain: B6 chain with D598A, D603A
For B7, the binding result (in assay [3]; in the assay with SIRK1-cYFP (Arabidopsis)) was “binds” in each case.

The values above are taken from article PMC6683012.
